Results as given in PubChem BioAssay AID485273 (Sanford-Burnham Center for Chemical Genomics, 2010).
Several values for one entry are separate records, joined by “and”; a condition that tells them apart may be missing. Equal values may be shown once. The campaign covered roughly 330,000 compounds. About 1,500 (0.45%) were called active. The shares of active, inactive and inconclusive entries below differ from those in the screen. Cut-off read from the data, not from the text of the source: active = inhibition above about 45% (passing the limit was not always enough); inconclusive = no clear call, values can overlap the other calls.

What follows are compounds tested against Ubiquitin-conjugating enzyme E2 N (Homo sapiens) (UniProt P61088) (assay: UBC13 polyubiquitin chain formation inhibitors, primary screen, biochemical, TR-FRET, uHTS (AID 485273)). Settings: at 20 µM, stronger effect = higher value.
Chain of UniProt P61088 (P61088 whole entry, looked up): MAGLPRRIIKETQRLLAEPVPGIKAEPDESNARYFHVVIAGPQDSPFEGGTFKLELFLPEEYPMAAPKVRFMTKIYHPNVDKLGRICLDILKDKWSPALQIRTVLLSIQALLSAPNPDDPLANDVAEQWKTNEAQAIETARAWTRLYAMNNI
For `O=C(CCc1ccc(S(=O)(=O)NCCc2ccccc2)cc1)N1CCN(Cc2ccc3c(c2)OCO3)CC1`, the inhibition was inactive: -4%. For `CC1(C)CC(CCN(Cc2ccccc2)C(=O)c2ccco2)(c2ccccc2)CCO1` (stereo not given), the inhibition was inconclusive: 71%. With `N#CC1=C(N)N(c2ccccc2)C(c2ccccc2)C1(C#N)C#N` (stereo not given) the inhibition was inactive: 16%. With `O=C(C1CCN(c2nnc(-n3cccc3)s2)CC1)N1CCN(Cc2ccc3c(c2)OCO3)CC1` the inhibition was inactive: 1%. In the case of `Nc1nc2ccccc2n1/N=C/c1ccc([N+](=O)[O-])s1`, the inhibition was inactive: -32.8%. For `CC(C)c1nc2sc3c(=O)[nH]cnc3c2c2c1CCC2`, the inhibition was inconclusive: 80.3%. For `CCOC(=O)CNC(=O)CSc1nc2c(C)cccc2cc1CC`, the inhibition was inconclusive: 63.5%. `O=C(CN1CCN(c2nc(-c3ccc(Cl)cc3)cs2)CC1)NCc1ccco1` was tested, and the inhibition was inactive: -8.5%. For `Cc1ccc(-c2noc(CCC(=O)Nc3ccccc3N3CCN(C)CC3)n2)cc1`, the inhibition was active: 71.9%. `CC(/C=N/NC(=O)c1ccc(CN2c3cccc4cccc(c34)S2(=O)=O)cc1)c1ccccc1` (stereo not given) was tested, and the inhibition was inactive: -8.6%. With `CC(=O)c1ccc(S(=O)(=O)N2CCCc3ccccc32)cc1` the inhibition was inconclusive: 61.1%. `COc1cc(OC)cc(-c2oc(=O)c3cc(OC)c(OC)cc3c2C#CCCCO)c1` was tested, and the inhibition was inconclusive: 65.2%. `CC(=O)Nc1sc2c(c1-c1nc3ccccc3s1)CCN(C(C)C)C2` was tested, and the inhibition was active: 59.7%. For `COc1ccc(OC)c(C2=NS(=O)(=O)N(C)C(C(=O)N3CCC4(CC3)OCCO4)=C2)c1`, the inhibition was inactive: -12.1%. `C=CCn1c(NC(=O)c2ccc(C)cc2)nc2ccccc21` was tested, and the inhibition was active: 46.5%. With `COCc1[nH]c(=S)c(C#N)cc1C(=O)OC` the inhibition was inconclusive: 69.3%. In the case of `Cc1ccc(C2C(C#N)=C(N)SC(N)=C2C#N)c(C)c1`, the inhibition was inconclusive: 46.3%. With `C/C(=N\O)C(C)(C)Nc1cccc(Br)c1` the inhibition was inconclusive: 84.3%. `CCN1C(=O)c2cccc3c(NC(=O)c4ccc(S(=O)(=O)N(C)C)cc4)ccc1c23` was tested, and the inhibition was active: 62.5%. With `S=c1nc(-c2ccccc2)[nH]c2ccccc12` the inhibition was inconclusive: 62.3%. With `COCCNc1nnc(SCC(=O)Nc2nnc(-c3ccccc3)o2)s1` the inhibition was inactive: -3.2%. For `COc1cccc(N2CCN(c3ccc4nnc(CCC(=O)Nc5cccc(C(C)=O)c5)n4n3)CC2)c1`, the inhibition was inconclusive: 60.1%. With `Fc1cccc(-c2cc3nc(-c4ccccc4)cc(N4CCC5(CC4)OCCO5)n3n2)c1` the inhibition was inconclusive: 54.1%. For `O=[N+]([O-])c1ccc2[nH]c(O)c(N=NC(=S)Nc3cccnc3)c2c1`, the inhibition was inconclusive: 64.2%. With `COc1ccc(C[C@H]2CN3C(=NC[C@@H]3C(C)C)N2CCNC(=O)c2ccc(C)c(Br)c2)cc1` the inhibition was active: 60.5%. In the case of `Cc1nc(N2CCN(c3ccccn3)CC2)c2c(C)c(C(=O)Nc3ccc(Cl)cc3)sc2n1`, the inhibition was inconclusive: 61.5%. With `Cc1ncoc1C(=O)Nc1nccs1` the inhibition was inactive: 9.6%. In the case of `Cc1ccc(N2CC(C(=O)N3CCOCC3)CC2=O)cc1Cl` (stereo not given), the inhibition was inactive: -4.9%. With `O=c1[nH]c(=S)[nH]cc1Oc1ccc(Cl)cc1Cl` the inhibition was inconclusive: 78.2%. For `CCn1c(=O)c(C(=O)NCc2ccc(Cl)cc2)c(O)c2ccccc21`, the inhibition was inconclusive: 59.5%. With `O=C(c1ccc(F)cc1)N1CCOCC1` the inhibition was inactive: 7.8%. `C=CCc1cccc2cc(C(=O)Nc3cccc(C(=O)O)c3)c(=O)oc12` was tested, and the inhibition was inconclusive: 79.9%. With `COc1ccc2nc(N3C(=O)CNC3=S)sc2c1` the inhibition was inactive: -18.3%. `CC(=O)c1cccc(NC(=O)N2CCCC2C(=O)Nc2ccc3c(c2)OCCO3)c1` (stereo not given) was tested, and the inhibition was inconclusive: 86.3%. With `CC(=O)C1=C(C)NC(SCC(=O)c2ccccc2)=C(C#N)C1CC(C)C` (stereo not given) the inhibition was inconclusive: 74.9%. With `O=C(O)C1Nc2c(O)cccc2C2C=CCC12` (stereo not given) the inhibition was inconclusive: 70.1%. For `Cn1c(NC(=O)C[n+]2cc(-c3ccccc3)n3c2CCC3)cc(=O)n(C)c1=O`, the inhibition was inactive: 7.9%. For `COC(=O)c1sccc1NC(=S)Nc1ccc(OC)cc1`, the inhibition was inconclusive: 66.6%. `COc1ccc(-c2oc(=O)c3cc(OC)c(OC)cc3c2C#C[C@]2(O)CC[C@H]3[C@@H]4CCc5cc(OC)ccc5[C@H]4CC[C@@]32C)cc1` was tested, and the inhibition was inconclusive: 62.5%. In the case of `O=C(COC(=O)c1ccccc1O)NC(=O)c1ccc(OC(F)F)cc1`, the inhibition was inconclusive: 75.2%. With `CCCCc1nc2sc3c(=O)[nH]cnc3c2c2c1CCCC2` the inhibition was inconclusive: 93.2%. For `Fc1cccc(-n2cc(-c3ccccc3)c3c(=S)nc[nH]c32)c1`, the inhibition was active: 55.5%. For `C[C@H](NC(=O)c1nc[nH]c1C(=O)N1CCN(C(=O)OC(C)(C)C)CC1)c1ccccc1`, the inhibition was inactive: 0.6%. For `C#CCOCCOCCOCCNc1nc(N2CCN(C(=O)C(Cc3ccc(O)cc3)n3cc(C(N)CC(C)C)nn3)CC2)nc(N2CCN(C(=O)C(Cc3cc4ccccc4[nH]3)n3cc(C(N)C(C)CC)nn3)CC2)n1` (stereo not given), the inhibition was active: 76.7%. `CC(=O)Oc1ccc(S(=O)(=O)c2ccc(OC(C)=O)cc2)cc1` was tested, and the inhibition was inactive: -4.5%. For `S=c1nc[nH]c2c1sc1nc(N3CCOCC3)c3c(c12)CCCC3`, the inhibition was inconclusive: 48.5%. With `CCCCNc1nc2c(-c3ccccc3)nnn2c2ccccc12` the inhibition was inconclusive: 50.1%. For `CSc1nc2ccc(NC(=O)c3c(-c4ccccc4)noc3C)cc2s1`, the inhibition was inconclusive: 89.6%. In the case of `O=C(NNC(=O)c1ccc(Oc2cc(Cl)cc(Cl)c2)o1)c1ccccc1`, the inhibition was inconclusive: 87.7%. In the case of `O=C(COC(=O)c1ccc(O)cc1O)Nc1ncc(Cl)cc1Cl`, the inhibition was inactive: -1.1%. For `C=CCn1c(SCC(=O)Nc2cc(C)on2)nc2sc(C)c(C)c2c1=O`, the inhibition was inactive: -4.5%. In the case of `COc1cc(OC)cc(-c2c(-c3cccs3)c3cc(-c4cc(OC)c(OC)c(OC)c4)ccc3n2C)c1`, the inhibition was inconclusive: 63.2%. For `O=C(CSCc1ccc([N+](=O)[O-])cc1)N/N=C/c1ccncc1`, the inhibition was active: 68.3%. `CCCn1c(-c2cccs2)nc2nc3ccccc3nc21` was tested, and the inhibition was inactive: 28.2%. In the case of `O=C(O)CCSc1ccc2ccccc2n1`, the inhibition was inconclusive: 81.7% and inconclusive: 88.8%.
